Test results taken from ChEMBL document CHEMBL1201862, “PubChem BioAssay data set” (2004).
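Assay format: 96-well plates, 48-hour exposure. GI50 = concentration required for 50% inhibition of growth.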 Active and inactive are the calls of the source. Cut-off read from the data, not from the text of the source: active = GI50 up to about 1.1 µM and inactive = higher.

These compounds were tested on NCI-H322M (assay: DTP human tumour cell line panel, 48 h).
`O=C1/C(=C/c2ccccc2[N+](=O)[O-])N=C(c2ccccc2)N1C1Nc2cc3c(cc2S1)NC(N1C(=O)/C(=C/c2ccccc2[N+](=O)[O-])N=C1c1ccccc1)S3` (configuration not stated) was tested, and the GI50 was inactive: 53.3 µM.
With `Cc1nn(-c2ccccc2)c2nc3c(c(C)nn3-c3ccccc3)c(-c3ccccc3Br)c12` the GI50 was inactive: > 100 µM.
With `COc1ccc(-c2oc3cc(O)c(OC)c(O)c3c(=O)c2O)cc1` [BETULETOL] the GI50 was inactive: 20.2 µM.
For `Cc1cc(Cl)ccc1NC(=O)C1C(=O)N(c2ccc(Cl)cc2C)C(=O)/C1=N\N` (configuration not stated), the GI50 was inactive: 33.7 µM.
With `COC(=O)c1cc(OC)c(OC)c(OC)c1-c1cc2c(cc1C=O)OCO2` the GI50 was inactive: > 10 µM.
With `N#CC(C#N)=Cc1ccc(C=C2SC3=C(SCCS3)S2)s1` the GI50 was inactive: > 100 µM.
`Cc1ccc([S+]([O-])C[C@@]2(C(F)F)NC(=O)NC2=O)cc1` (some centres not stated) was tested, and the GI50 was inactive: > 100 µM.
With `CSc1ccc(/C=C/C(=O)c2nc3ccccc3[nH]2)cc1` the GI50 was inactive: 19.4 µM.
`N=c1oc2ccc([N+](=O)[O-])cc2cc1C(=O)NCc1ccccc1` was tested, and the GI50 was inactive: 34.4 µM.
With `COc1ccc(N2C(=O)C3c4[nH]c5ccc(OCc6ccccc6)cc5c4C4CCC(c5ccccc5)CC4C3C2=O)cc1` (configuration not stated) the GI50 was inactive: > 100 µM.
In the case of `O=C(Nc1ccccc1-c1nn(CO)c(=S)n(CO)c1=O)C(F)(F)F`, the GI50 is reported as inactive: > 100 µM.
For `O=c1c2ccccc2c(=O)n2n1CC=CC2`, the GI50 was inactive: > 100 µM.
With `O=CNc1cccc2c3c([nH]c12)CCCCCC3` the GI50 was inactive: > 100 µM.
With `O=C(O)Cc1ccc(/N=N/c2c(O)c(C(=O)O)cc3ccccc23)cc1` the GI50 was inactive: > 100 µM.
In the case of `Cc1ccc(-c2nc3cc(F)c(N4CCN(C)CC4)cc3[nH]2)cc1`, the GI50 is reported as inactive: 19.5 µM.
For `CC(C)(C)[Si](C)(C)OCC1CCC(n2cnc3c(=O)[nH]cnc32)O1` (configuration not stated), the GI50 was inactive: > 100 µM.
In the case of `CCOc1ccc(/N=N/c2c(-c3ccccc3)nn(C(=O)CC(=O)Nc3ccccc3Cl)c2-c2ccccc2)cc1`, the GI50 is reported as inactive: 83.4 µM.
`COc1ccccc1/N=N/c1c(-c2ccccc2)nn(C(=O)CC(=O)Nc2cccc(C)c2)c1-c1ccccc1` was tested, and the GI50 was inactive: 67.3 µM.
For `O=C(/C=C\c1ccsc1)c1ccccc1`, the GI50 was inactive: 13.7 µM.
In the case of `CCOC(=O)CCN1C(=O)c2ccc(NC(=O)C(=O)O)cc2S1(=O)=O`, the GI50 is reported as inactive: > 100 µM.
For `Cc1nc(Nc2ccc(Cl)cc2)sc1C(=O)NNC(=S)NN`, the GI50 was inactive: 20.8 µM.
In the case of `NS(=O)(=O)c1nnc(NC(=O)C23CC4CC(CC(C4)C2)C3)s1`, the GI50 is reported as inactive: 16 µM.
`NC(=O)c1cc([N+](=O)[O-])cc([N+](=O)[O-])c1` [NITROMIDE] was tested, and the GI50 was inactive: > 100 µM.
`Nc1ccn(C2CCC(COP(=O)(O)OCC(O)COP(=O)(O)OCC3OC(n4cc(F)c(=O)[nH]c4=O)CC3O)O2)c(=O)n1` (configuration not stated) was tested, and the GI50 was inactive: 4.05 µM.
In the case of `CC(C)N1[C@@H]2CCCC[C@H]2N(C(C)C)[PH]1=O`, the GI50 is reported as inactive: > 100 µM.
In the case of `C/C(=N\NC(=S)NC(C)(C)C)c1nc2cccnc2[nH]1`, the GI50 is reported as inactive: 3.33 µM.
`COc1ccc(OC)c2sc(N3C(=O)/C(=C/c4ccc(Cl)cc4)N=C3c3ccccc3)nc12` was tested, and the GI50 was inactive: > 100 µM.
`O=C(Nc1ccc(I)cc1C(=O)NCCO)c1cccs1` was tested, and the GI50 was inactive: > 100 µM.
`CC[C@@]1(O)C(=O)OCc2c1cc1n(c2=O)Cc2c-1nc1ccccc1c2/C=N\NC(=O)C(N)=O` was tested, and the GI50 was inactive: 15.8 µM.
In the case of `Cc1cc2c(C(C)C)c(O)c(O)c(/C=N\CCO)c2c(O)c1-c1c(C)cc2c(C(C)C)c(O)c(O)c(/C=N/CCO)c2c1O`, the GI50 is reported as inactive: 3.05 µM.
In the case of `CC(=O)C1C(=O)C(=O)N(CCN2C(=O)C(=O)C(C(C)=O)C2=O)C1=O` (configuration not stated), the GI50 is reported as inactive: > 100 µM.
For `OC1(c2ccc(Cl)cc2)c2ccccc2C2=Nc3ccccc3CN21` (configuration not stated), the GI50 was inactive: > 61.8 µM.
For `N#C[C@H](C(=O)c1ccccc1F)c1nc2ccccc2[nH]1`, the GI50 was inactive: > 100 µM.
In the case of `CNC(=O)[C@H](Cc1ccccc1)NC(=O)N(CCC#N)CCN(C(=O)N[C@@H](Cc1ccccc1)C(=O)OC)c1ccccc1`, the GI50 is reported as inactive: > 100 µM.
For `COC1(OC)C2(Cl)C(Cl)=C(Cl)C1(Cl)C1COCC12` (configuration not stated), the GI50 was inactive: > 100 µM.
`CC1(C)[N+]([O-])=[N+]([O-])C1(Br)c1ccccc1` (configuration not stated) was tested, and the GI50 was inactive: > 100 µM.
In the case of `CC1(C)O[C@H](C(=O)O)[C@@H](C(=O)O)O1`, the GI50 is reported as inactive: > 100 µM.
`CN[C@@H]1C[C@H]2O[C@@](C)([C@@H]1OC)n1c3ccccc3c3c4c(c5c6ccccc6n2c5c31)C(=O)N[C@@H]4O` was tested, and the GI50 was active: 0.0845 µM.
`C=CCn1c(-c2ccc(-c3cs/c(=N\N=O)n3CC=C)cc2)cs/c1=N\N=O` was tested, and the GI50 was inactive: > 100 µM.
`CSC1=Nc2ccccc2N=C(c2ccccc2)C1` was tested, and the GI50 was inactive: > 100 µM.
`O=C(N/C(=C\c1ccc([N+](=O)[O-])cc1)c1nc2cc(Cl)ccc2[nH]1)c1ccccc1` was tested, and the GI50 was inactive: 25.8 µM.
`CNC(=S)NNC(=O)c1c(C)nc2sccn12` was tested, and the GI50 was inactive: > 100 µM.
`O=C1CCCNn2c(nc3ncccc3c2=O)N1` was tested, and the GI50 was inactive: > 100 µM.
`Cc1nn(C(=O)Cc2ccccc2)c2c1C(c1ccccc1[N+](=O)[O-])SC(=N)N2` (configuration not stated) was tested, and the GI50 was inactive: > 100 µM.
For `NC(=S)N/N=C/c1ncccc1N` [TRIAPINE], the GI50 was inactive: 3.46 µM.
With `CC(C)(CO[C@H]1C[C@H]2CC[C@@]1(C)C2(C)C)[N+](=O)[O-]` the GI50 was inactive: 14.4 µM.
With `NS(=O)(=O)c1nc(S(=O)(=O)O)c2[nH]cnc2n1` the GI50 was inactive: > 100 µM.
In the case of `c1cc2nsnc2c2c[nH]cc12`, the GI50 is reported as inactive: > 100 µM.
`COc1nc(Cl)c(Cl)c(Cl)n1.COc1nc(Cl)nc(Cl)c1Cl` was tested, and the GI50 was inactive: 9.12 µM.
In the case of `CC(C)N(C(=O)C12C3(C(=O)OC(C)(C)C)C4C5(C#N)C3C1(C(=O)OC(C)(C)C)C5C42C(=O)OC(C)(C)C)C(C)C` (configuration not stated), the GI50 is reported as inactive: > 100 µM.
For `O=c1sc2c(s1)SSSSS2`, the GI50 was inactive: > 50 µM.
In the case of `Cc1cc(C)n(-c2nc3ccccc3c(=O)[nH]2)n1`, the GI50 is reported as inactive: 3.52 µM.
With `O=C1c2ccccc2C(=O)c2c(OCCOCCO)cccc21` the GI50 was inactive: 82.4 µM.
For `CN(C)C(=S)/N=C1\SC(=N\c2ccccc2)/C(=N/c2ccccc2)N1c1ccc([N+](=O)[O-])cc1`, the GI50 was inactive: > 100 µM.
In the case of `CCOC(=O)c1c(NC(=O)c2ccccc2)sc2c1CCCC2`, the GI50 is reported as inactive: > 100 µM.
`CN1C(c2ccccc2)CS(=O)(=O)CS1(=O)=O` (configuration not stated) was tested, and the GI50 was inactive: > 100 µM.
`CC[n+]1c(/C=C/c2cc(C(=O)OC)n3c2sc2ccccc23)sc2ccccc21` was tested, and the GI50 was inactive: 16.3 µM.
`Cc1c2cc[n+](CCN3CCCCC3)cc2c(C)c2c1[nH]c1ccc(O)cc12` was tested, and the GI50 was inactive: 1.77 µM.
`COc1ccc(C(=O)C=C2NCCN2)cc1` was tested, and the GI50 was inactive: > 100 µM.
For `O=c1[nH]c(=O)n(COCCO)c2ccsc12`, the GI50 was inactive: > 100 µM.
`COC(=O)[C@]12CC[C@H]3CN(S(=O)(=O)c4ccc(C)cc4)[C@H]([C@H]31)[C@H](c1ccco1)N2S(=O)(=O)c1ccc(C)cc1` was tested, and the GI50 was inactive: > 100 µM.
`Cc1ccc2c(c1)[nH]c(=S)n2/C=C1\C(=O)Oc2ccccc2C1=O` was tested, and the GI50 was inactive: 94.2 µM.
`COCN(CCC1=CCCCC1)C(=O)OC` was tested, and the GI50 was inactive: > 100 µM.
`Cc1ccc(-n2c(=O)c3nn4c(=O)n(-c5ccc(C)cc5)c(=O)c4nn3c2=O)cc1` was tested, and the GI50 was inactive: > 100 µM.
In the case of `CC(C)[C@@H]1CC[C@@H](C)C[C@H]1OC(=O)/C=C1\C(C(=O)O[C@@H]2C[C@H](C)CC[C@H]2C(C)C)[C@H]2C=C[C@@H]1O2` (some centres not stated), the GI50 is reported as inactive: > 100 µM.
In the case of `O=C(CC(=O)C1CCOC1=O)C(=O)Nc1ccc(Cl)cc1` (configuration not stated), the GI50 is reported as inactive: > 100 µM.
In the case of `CCCC/C=C1\CCC(C)(CN(C)C)C1=O` (configuration not stated), the GI50 is reported as inactive: > 100 µM.
For `CC(=O)OCC1OC(c2nnc(C)o2)=CC(OC(C)=O)C1OC(C)=O` (configuration not stated), the GI50 was inactive: > 100 µM.
In the case of `CC(=O)Oc1cc2oc(=O)cc(C)c2cc1OC(C)=O`, the GI50 is reported as inactive: 34.1 µM.
For `CCNc1cc2c3c(c1)CCN3CCC2`, the GI50 was inactive: > 10 µM.
In the case of `COC(=O)C1=C(OC(=O)/C=C/c2ccccc2)C(C(=O)OC)[C@@]2(O)[C@@H](C(=O)OC)[C@H](C)C[C@@H]1[C@@H]2C(=O)OC` (some centres not stated), the GI50 is reported as inactive: 24.1 µM.
In the case of `COC(=O)[C@@H]1[C@@H](c2cccc(Cl)c2)[C@H](C(=O)OC)C2(C[C@@]1(C)O)NCCS2` (some centres not stated), the GI50 is reported as inactive: > 100 µM.
`O=C1CCCc2cc3c(cc21)CC1(C3)Cc2cc3c(cc2C1)C(=O)CCC3` was tested, and the GI50 was inactive: 4.46 µM.
With `C=CC[C@H](N=C(SC)SC)C(=O)N1C(=O)N(C)[C@@H](C)[C@H]1c1ccccc1` the GI50 was inactive: 46.2 µM.
With `O=C(Nc1ccc(Cl)cc1Cl)OC(Cn1cncn1)c1ccc(Cl)cc1Cl` (configuration not stated) the GI50 was inactive: 17.4 µM.
`C/C(=N\NC(=S)NNC(=S)N(C)c1ccccc1)c1ccccn1` was tested, and the GI50 was active: 0.524 µM.
With `CCOc1ccc(/N=C/c2c3ccccc3nc3ccccc23)cc1` the GI50 was inactive: 98.9 µM.
In the case of `CC(=O)C(I(OS(=O)(=O)c1ccc(C)cc1)c1ccccc1)=P(c1ccccc1)(c1ccccc1)c1ccccc1`, the GI50 is reported as inactive: 31.4 µM.
With `Nc1ccccc1C(=O)/C=C/c1ccccc1O` the GI50 was inactive: 60.8 µM.
With `O=C(O)CSc1cc(-c2ccccc2)nc2ccccc12` the GI50 was inactive: 43.8 µM.
With `CCCNC(C#N)c1ccc(C(C#N)NCCC)cc1` (configuration not stated) the GI50 was inactive: > 100 µM.
`C=C(Cl)COC(=O)Nc1cccc(Cl)c1` was tested, and the GI50 was inactive: 87.7 µM.
With `CN1C/C(=C\c2cccs2)C(O)/C(=C/c2cccs2)C1` (configuration not stated) the GI50 was inactive: > 100 µM.
In the case of `O=C1CCC(NC(=O)Cc2ccc(O)cc2)C(=O)N1` (configuration not stated), the GI50 is reported as inactive: > 2500 µM.
In the case of `Cn1c(=O)nc2n(-c3ccc(O)cc3)c3ccccc3nc-2c1=O`, the GI50 is reported as inactive: > 100 µM.
`O=C1C2Cc3ccccc3CN2C(=O)N1CN1CCCCC1` (configuration not stated) was tested, and the GI50 was inactive: > 100 µM.
For `O=S(=O)(O)c1ccc2c(/N=N/c3ccccc3Cl)c(O)ccc2c1`, the GI50 was inactive: > 100 µM.
With `C=CC(=O)NC(O)(C(=O)OCC)C(F)(F)F` (configuration not stated) the GI50 was inactive: > 100 µM.
In the case of `COC(=O)NC(Cc1ccccc1)NC(C)=O` (configuration not stated), the GI50 is reported as inactive: > 100 µM.
In the case of `C=CCOC(=O)NC1C(OC(C)[C@@H](NC(=O)OCc2ccccc2)C(=O)OC(C)(C)C)OC(COC(C)=O)C(OC(C)=O)C1OC(C)=O` (some centres not stated), the GI50 is reported as inactive: > 100 µM.
For `CC(=O)OC1CCn2nnc(COC(=O)NC(C)C)c21` (configuration not stated), the GI50 was inactive: > 100 µM.
In the case of `CN1c2ccccc2S(=O)(=O)n2c(COc3ccccc3)nnc21`, the GI50 is reported as inactive: > 100 µM.
